Experimental data reported in PMC4081100.
Only a part is listed here, and it is no random draw. At the low end of the ranking the order means little.

biological target: T1, GST-ANAC092(1-176) (UniProt Q9FKA0); assay: universal protein binding microarray (PBM); conditions: high values mean tight binding; double strand, one strand shown
T1 sequence: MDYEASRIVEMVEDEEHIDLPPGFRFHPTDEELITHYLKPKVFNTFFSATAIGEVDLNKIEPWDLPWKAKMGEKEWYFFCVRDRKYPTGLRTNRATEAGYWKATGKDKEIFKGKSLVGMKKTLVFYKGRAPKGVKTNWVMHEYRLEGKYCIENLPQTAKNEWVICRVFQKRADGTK

Sequence | binding signal [E-score]
ACGCTACC | 0.455
TCAGTCAA | -0.0566
ACTTTCCT | 0.00267
TGGAGTAA | 0.319
AGTCTACG | -0.0417
ATTACTTC | 0.31
GCTAAGCA | 0.0197
GTCAACGA | -0.0919
CGAAGGAA | 0.176
GTAGTCAA | -0.0248
GTCAATCA | 0.00213
ACGGCAGT | 0.207
ATTTCCTC | -0.0162
CTGACTTC | -0.0317
AAAGTCGT | -0.00168
TGACCGAA | -0.0964
AATAGTCA | -0.0539
AAGACCAA | -0.0153
ACCTTACC | 0.00609
GGGGGTAA | -0.155
AGCGTTGA | 0.0263
GTTGGTCA | 0.0266
AAAGGTAA | 0.0477
ACGCGATC | 0.314
CTACGCGA | 0.0195
CTTTTGAC | 0.158
ACTGACCT | -0.0142

biological target: GST-NTL6(1-168) (UniProt Q9SCK6); assay: universal protein binding microarray (PBM); conditions: high values mean tight binding; double strand, one strand shown

Sequence | binding signal [E-score]
ACGCTACC | -0.0179
TCAGTCAA | -0.0365
ACTTTCCT | 0.292
TGGAGTAA | 0.105
TAGAGTAA | 0.0406
AGTCTACG | -0.16
GCTAAGCA | 0.411
GTCAACGA | -0.165
CGAAGGAA | 0.473
GTAGTCAA | 0.0675
GTCAATCA | -0.00805
ACGGCAGT | 0.00944
ATTTCCTC | 0.148
CTGACTTC | 0.0065
AAAGTCGT | 0.0143
AGACGTGA | 0.0777
TGACCGAA | -0.0631
AATAGTCA | 0.0108
AAGACCAA | 0.18
ACCTTACC | 0.306
GGGGGTAA | 0.147
ACTAGTCA | 0.0329
AGCGTTGA | 0.0737
GTTGGTCA | -0.0165
AAAGGTAA | 0.262
CACGTCAG | -0.173
ACGCGATC | -0.142
CTACGCGA | -0.0518
AAGTCAAA | 0.135
ACTGACCT | -0.0219

biological target: T2, GST-ANAC019 NAC domain (UniProt Q9C932); assay: universal protein binding microarray (PBM); conditions: high values mean tight binding; double strand, one strand shown
T2 sequence: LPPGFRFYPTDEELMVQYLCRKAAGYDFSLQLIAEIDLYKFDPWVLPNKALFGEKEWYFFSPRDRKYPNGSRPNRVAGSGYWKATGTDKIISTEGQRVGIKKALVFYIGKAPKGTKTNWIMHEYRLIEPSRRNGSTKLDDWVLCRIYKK

Sequence | binding signal [E-score]
ACGCTACC | 0.118
TCAGTCAA | -0.0194
ACTTTCCT | 0.0411
TGGAGTAA | 0.0261
TAGAGTAA | -0.0715
AGTCTACG | 0.0568
GCTAAGCA | -0.0557
GTCAACGA | 0.0209
CGAAGGAA | 0.0187
GTAGTCAA | 0.0334
GTCAATCA | 0.0668
ACGGCAGT | 0.418
ATTTCCTC | -0.174
AGACGTGA | 0.425
TGACCGAA | -0.03
AATAGTCA | -0.0594
ACCTTACC | -0.0167
GGGGGTAA | -0.117
ACTAGTCA | 0.0985
AGCGTTGA | -0.13
GTTGGTCA | 0.0392
AAAGGTAA | -0.0174
ACGCGATC | -0.0822
CTACGCGA | -0.0262
CTTTTGAC | 0.014
AAGTCAAA | 0.084
GACGTAAC | 0.355
ACTGACCT | -0.00789

biological target: T3, GST-ANAC055(1-171) (UniProt Q9LDY8); assay: universal protein binding microarray (PBM); conditions: high values mean tight binding; double strand, one strand shown
T3 sequence: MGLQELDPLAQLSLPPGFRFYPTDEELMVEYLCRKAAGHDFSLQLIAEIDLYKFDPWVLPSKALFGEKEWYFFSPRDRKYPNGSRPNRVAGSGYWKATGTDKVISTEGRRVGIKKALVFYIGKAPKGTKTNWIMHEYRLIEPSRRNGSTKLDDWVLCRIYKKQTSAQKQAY

Sequence | binding signal [E-score]
ACGCTACC | 0.0295
TCAGTCAA | -0.0534
ACTTTCCT | 0.171
TAGAGTAA | 0.0921
AGTCTACG | -0.11
GCTAAGCA | -0.133
GTCAACGA | -0.141
ACGGCAGT | 0.311
ACACGATA | 0.261
ATTTCCTC | 0.00859
CTGACTTC | -0.163
TGACCGAA | -0.0598
AAGACCAA | 0.172
ACCTTACC | -0.0385
GGGGGTAA | -0.272
ACTAGTCA | 0.134
AGCGTTGA | 0.00861
GTTGGTCA | 0.182
CACGTCAG | 0.19
ACGCGATC | -0.00687
CTACGCGA | -0.117
AAGTCAAA | 0.0354
ACTGACCT | -0.0359

biological target: T4, GST-ATAF1 NAC domain (UniProt Q39013); assay: universal protein binding microarray (PBM); conditions: high values mean tight binding; double strand, one strand shown
T4 sequence: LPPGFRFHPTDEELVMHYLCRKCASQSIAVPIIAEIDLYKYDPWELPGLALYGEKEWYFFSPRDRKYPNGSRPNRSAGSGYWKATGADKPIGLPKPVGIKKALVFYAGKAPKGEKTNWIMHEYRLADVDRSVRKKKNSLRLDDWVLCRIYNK

Sequence | binding signal [E-score]
TGGAGTAA | 0.11
AGTCTACG | 0.0473
GCTAAGCA | -0.248
GTCAACGA | 0.0445
ACACGCAA | 0.439
GTCAATCA | 0.048
ACGGCAGT | 0.212
ATTTCCTC | 0.0269
CTGACTTC | -0.0737
TGACCGAA | -0.0181
GGGGGTAA | -0.167
ACTAGTCA | 0.0655
AGCGTTGA | -0.0398
AAAGGTAA | 0.0117
ATACGTAA | 0.407
ACGCGATC | 0.0248
CTACGCGA | -0.00467
AAGTCAAA | 0.16
ACGAGAAA | 0.184
ACTGACCT | -0.0959

biological target: T5, GST-ANAC092(1-285) full length (UniProt Q9FKA0); assay: universal protein binding microarray (PBM); conditions: high values mean tight binding; double strand, one strand shown
T5 sequence: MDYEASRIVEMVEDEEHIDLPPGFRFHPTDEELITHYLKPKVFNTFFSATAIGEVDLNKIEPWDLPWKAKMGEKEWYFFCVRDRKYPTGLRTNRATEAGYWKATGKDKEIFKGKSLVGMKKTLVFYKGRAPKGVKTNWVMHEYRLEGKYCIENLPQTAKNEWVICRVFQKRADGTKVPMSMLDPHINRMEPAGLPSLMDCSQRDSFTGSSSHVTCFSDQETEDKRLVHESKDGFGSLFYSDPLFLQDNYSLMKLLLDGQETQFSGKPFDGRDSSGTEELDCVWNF

Sequence | binding signal [E-score]
TCAGTCAA | 0.0254
ACTTTCCT | 0.0813
TAGAGTAA | 0.263
AGTCTACG | 0.0408
GCTAAGCA | -0.0522
GTCAACGA | 0.0192
ACACGCAA | 0.498
GTAGTCAA | 0.000745
ATTTCCTC | -0.0291
CTGACTTC | -0.2
AAAGTCGT | -0.0387
AGACGTGA | 0.272
TGACCGAA | -0.0386
ACCTTACC | 0.111
GTTGGTCA | 0.0411
AAAGGTAA | 0.0772
ACGCGATC | 0.402
AAGTCAAA | -0.0494
ACTGACCT | -0.0898

biological target: T6, GST-NAP(1-166) (UniProt O49255); assay: universal protein binding microarray (PBM); conditions: transcription factors of Arabidopsis thaliana; high values mean tight binding; most listed sequences are background and not binding sites; double strand, one strand shown
T6 sequence: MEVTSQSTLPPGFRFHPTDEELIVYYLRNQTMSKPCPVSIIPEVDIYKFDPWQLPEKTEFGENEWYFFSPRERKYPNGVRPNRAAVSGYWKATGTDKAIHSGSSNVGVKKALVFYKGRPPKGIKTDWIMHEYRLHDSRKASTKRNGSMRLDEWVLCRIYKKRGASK

Sequence | binding signal [E-score]
ACGCTACC | 0.0969
TCAGTCAA | -0.0898
ACTTTCCT | 0.0235
TGGAGTAA | -0.0165
TAGAGTAA | -0.054
AGTCTACG | -0.0347
ATTACTTC | -0.0211
GCTAAGCA | -0.0615
GTCAACGA | -0.0489
ACACGCAA | 0.487
GTAGTCAA | 0.0663
GTCAATCA | -0.136
ACACGATA | 0.183
ATTTCCTC | 0.0401
CTGACTTC | -0.0175
AGACGTGA | 0.223
TGACCGAA | 0.0367
AATAGTCA | 0.0269
AAGACCAA | -0.0774
ACCTTACC | -0.131
GGGGGTAA | -0.0656
AGCGTTGA | 0.0398
GTTGGTCA | 0.117
ATACGTAA | 0.461
CTACGCGA | -0.0157
CTTTTGAC | 0.0483
ACGAGAAA | 0.206
ACTGACCT | -0.0607
